From patent publication US6730699B2, “Water soluble paclitaxel derivatives” (priority 2001, dated 2004)

Test system: paclitaxel-dependent CHO mutant Tax-18 cells
Details: 6 days at 37° C.

CC(=O)O[C@H]1C(=O)[C@@]2(C)[C@H]([C@H](OC(=O)c3ccccc3)[C@]3(O)C[C@H](OC(=O)[C@H](O)[C@@H](NC(=O)c4ccccc4)c4ccccc4)C(C)=C1C3(C)C)[C@]1(OC(C)=O)CO[C@@H]1C[C@@H]2O [Paclitaxel, paclitaxel]
concentrations that support growth of Tax-18 cells: 0.05 to 0.2 µM
